Assay results taken from the RNAGym collection of RNA variant scans (doi:10.1073/pnas.2313332121).
Variants at the floor of the assay are shown more often than the library holds them.

B1: TPR 5TU (parent)
chain: GGAUCUUCUCGAUCUAACAAAAAAGACAAAUCUGCCACAAAGCUUGAGAGCAUCUUCGGAUGCAGAGGCGGCAGCCUUCGGUGGCGCGAUAGCGCCAACGUUCUCAACUAUGACACGCAAAACGCGUGCUCCGUUGAAUGGAGUUUAUCAUG

Variants of: B1
Test: polymerase ribozyme fitness, log enrichment relative to wild type (log ratio); higher = more active; in vitro selection for triplet polymerase activity
Summary of the method: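 To select mutant libraries of each subunit of a heterodimeric triplet polymerase ribozyme, built by PCR and transcribed, each was annealed with a biotinylated primer, partner subunit and triplets, then incubated frozen at −7 °C. Extended constructs were gel-excised, captured on streptavidin beads and amplified by RT-PCR, in one round carried out in triplicate. Illumina sequencing of input and output libraries kept genotypes with ≥10 input reads and ≥1 read per output. Fitness is the base-2 logarithm of genotype enrichment relative to wild-type enrichment, from inverse-variance-weighted replicate averages.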

GGAUCUUCUCAAUCUAACAAAAAAGACAAAUCUGUCACAAAGCUUGAGAGUAUCUUCGGAGGUCGAGGCGGCAGCCUUCGGUGGGGCGAGAGCGCCAACGUUCUCAACUAUGACACGCAAAACGCGUGCUCCGUUGAAUAGAGUUUAUCAUG [G11A C35U C51U U61G C63U A64C C85G U90G G140A] and GGAUCUUCUCAAUCUAACAAAAAAGACAAAUCUGCCAUAUAGCUUGAGAGCAUCUUCGGAUGCAGAGGCGGCAGUCUUCGGUGGCACGAUAGCGCCAACGUUCUCAAGUAUGACACGCAAAACCCGUGCUCGGUUGAAUGGAGUUUAUCAUG [G11A C38U A40U C75U G86A C108G G124C C132G] cannot be ordered by “polymerase ribozyme fitness (log ratio)” value: no more than -4.2 for the first, no more than -4.2 for the second.

GGAUCUUCUCAAUCUAACAAAAAAGACAAAUCUGCCACAAAGUUUGAGAGCAUUUUCGGAUGCAGAGGCGGCAGCCUUCGGUGGCGCGAUAGCGCCAACGUUCUCUAGUAUAACACGCAAAACGCGUGCUCCGUUGAAUGGAGUUUAUCAUG [G11A C43U C54U A106U C108G G112A] and GGAUCUUCUCAAUCUAACAAAAAAGACAAAUCUGCCACAAAGCUUGAGAGGAUCUUCGGAUGCAGAGGCGGCAGCCUUCGGUGGCGGGUUAGCGCCAACGUUCUCAACUAUGACACGCAAAACGAGUGCUCCGUGGAAUGGAGUUUAUCAUG [G11A C51G C87G A89U C125A U135G] cannot be ordered by “polymerase ribozyme fitness (log ratio)” value: no more than -4.2 for the first, no more than -4.2 for the second.

First: GGAUCUUCUCAAUCUAACAAAAAAGACAAAUCUGCCACAAAGCUUGAGAGUAUCUUCGGAUGCAGAGGCGGCAGCCUUCGGUGAGGCGAUAGCGCCGACGUUCUCAACUAUGAGACGCAGAACGUGUGCUGCGUUGAAUGGAGUUUAUCAUG [G11A C51U G84A C85G A97G C114G A120G C125U C131G]
Second: GGAUCUUCUCAAUCUAACAAAAAAGACAAAUCUGCCACAAAGCUUGAGAGCAUAUUCGGAUGCAGAGGCGGCAGCCUUCGGUGGCGCGAUAGCGCCAACGUUCUCAACUAUGACACGCAAAACGCGUGCUCCGUUGAAUGGAGUUUAUCAUG [G11A C54A]
The “polymerase ribozyme fitness (log ratio)” value of the first is lower: no more than -4.2 for the first, -2.47 for the second.

Going from GGAUCUUCUCAAUCUAACAAAAAAGACAAAUCUGCCACAAAGCUUGAGAGCAUGUUCGGAUGCAGAGGCGGCGGCCUUAGGGGGCGUGAUAGCGCCAACGUUCUCAACUAUGACACGCAAAUCGCGUGCUCCGUUGAAUGCAGUUUAUCAUG [G11A C54G A73G C79A U82G C87U A122U G141C] to GGAUCUUCUCAAUCUAACAAAAAAGACAAAUCUGCCACAAAGCUUGAGAGCAUGUUCGGAUGCAGAGGCGGCAGCCUUCGGUGGCGCGAUAGCACCAACGUUCUCAACUAUGACACGCAAAACGCGUGCUCCGUUGAAUGGAGUUUAUCAUG [G11A C54G G94A], the “polymerase ribozyme fitness (log ratio)” value rises from no more than -4.2 to -2.96.

GGAUCUUCUCAAUCUAACAAAAAAGACAAAUCUGCCACAAAGCUUGAGAGCAUUUUCGGAUGCAGAGGUGGCAGCCUUAGGUGGCGCGAUAACGCCAACGUUCACAACUAUGACACGCAAAACGCGUGCUCCGUUGAAUGGAGUUUAUCAUG [G11A C54U C69U C79A G92A U104A] and GGAUCUUCUCAAUCUAACAAAAAAGACAAAUCUGCCACAAAGCUUGAGAGCAUUUUCGGAUGCAGAGGCGGCAGCCUUCGGUGGCGGGAUAGUGCCAACGUUCUCAACUAUGACACGCAAAACGAGUGCUCCAUUGAAUGGCGUUUAUCAUG [G11A C54U C87G C93U C125A G133A A142C] cannot be ordered by “polymerase ribozyme fitness (log ratio)” value: no more than -4.2 for the first, no more than -4.2 for the second.

GGAUCUUCUCAAUCUAACAAAAAAGACAAAUCUGCCACAAAGCUUGAGAGCAUUUUCGGAAGCAGAGGCGGCAGCCUUCGGUGGCGCGAUAGCGACAACGUUCUCAACUAUGACACGCAAAACGCGUGCUCCGUUGAAUGGAGUUUAUGAUG [G11A C54U U61A C95A C149G] and GGAUCUUCUCAAUCUAACAAAAAAGACAAAUCUGCCACAAAGCUUGAGAGCAUCUUGGGAUGCAGAGGCGGCAGCCUUCGGUGGCCCGAUAGCGCCAACGUUCUCAACUAUGACACGCAAAACGCGUGCUCCGUUGAAUGCAGUUUAUCAUG [G11A C57G G86C G141C] cannot be ordered by “polymerase ribozyme fitness (log ratio)” value: no more than -4.2 for the first, no more than -4.2 for the second.

Going from GGAUCUUCUCAAUCUAACAAAAAAGACAAAUCUGCCACAAAGCUUGAGAGCAUCUUCGGAUGUAGAGGCGGCAGCAUUCGGUGGCGCGAUAGCGCCAACGUUGUCAACUAUGACACGCAAAACGCGUGCUCCGUUGAAUGGAGUUGAGCAUG [G11A C63U C76A C103G U146G U148G] to GGAUCUUCUCAAUCUAACAAAAAAGACAAAUCUGCCACAAAGCUUGAGAGCAUCUUCGGAUGCAGAGGUGGCAGCCUUCGGUGGCGUGAUACCGCCAACGUUCUCAACUAUGACACGCAAAACGCGUGCUCCGUUGAAUGGAGUUUAUCGUG [G11A C69U C87U G92C A150G], the “polymerase ribozyme fitness (log ratio)” value rises from no more than -4.2 to -2.89.

GGAUCUUCUCAAUCUAACAAAAAAGACAAAUCUGCCACAAAGCUUGAGAGCAUCUUCGGAUGCAGAGGCGGCAGCGCUCGGUGGCGCGAUAGCGCCAACGUUCUCAACUAUGACACGCAAAACGCGUGCUCCGUUGAAUGGAGUUUAUCAUG [G11A C76G U77C] and GGAUCUUCUCAAUCUAACAAAAAAGACAAAUCUGCCACAAAGCUUGAGAGCAUCUUCGGAUGCAGAGGCGGCAGCCUUAGGUGGCGCGAUAGCGCCAACGUUCGCAACUAUGACACGCAAAACGCGUGCUCCGUUGAAUGGAGUUUAUCAUG [G11A C79A U104G] cannot be ordered by “polymerase ribozyme fitness (log ratio)” value: no more than -4.2 for the first, no more than -4.2 for the second.

Going from GGAUCUUCUCAAUCUAACAAAAAAGACAAAUCUGCCACAAAGCUUGAGAGCAUCUUCGGAUGCAGAGGCGGCAGCCUUCGGUGGAGCGAUAGCGCCAACGUUCUCAACUAUGACACGCAAAACGCGUGCUCCGUUGAAUGGAGUUUAUCAUG [G11A C85A] to GGAUCUUCUCAAUCUAACAAAAAAGACAAAUCUGCCACAAAGCUUGAGAGCAUCUUCGGAUGCAGAGGCGGCAGCCUUCGGUGGUGCGAUACCGCCAACGUUCUCAACUAUGACACGCAAAACGCGUGCUCCGUUGAAUGGAAUUUAUCAUG [G11A C85U G92C G143A], the “polymerase ribozyme fitness (log ratio)” value falls from -2.76 to -4.01.

For GGAUCUUCUCAAUCUAACAAAAAAGACAAAUCUGCCACAAAGCUUGAGAGCAUCUUCGGAUGCAGAGGCGGCAGCCUUCGGUGGCGCGAUAGCGCCAACGUUCUCAACUAUGAGACGCAAAACUCGUGCUCCGUUGAAUGGAGUUUAUCAUG [G11A C114G G124U], the “polymerase ribozyme fitness (log ratio)” value was -4.03.
